The other results are listed elsewhere or left out.
T1: UNK ZnF1-6 (called full-length) (human, UniProt Q9C0B0 30-357)
T1 sequence: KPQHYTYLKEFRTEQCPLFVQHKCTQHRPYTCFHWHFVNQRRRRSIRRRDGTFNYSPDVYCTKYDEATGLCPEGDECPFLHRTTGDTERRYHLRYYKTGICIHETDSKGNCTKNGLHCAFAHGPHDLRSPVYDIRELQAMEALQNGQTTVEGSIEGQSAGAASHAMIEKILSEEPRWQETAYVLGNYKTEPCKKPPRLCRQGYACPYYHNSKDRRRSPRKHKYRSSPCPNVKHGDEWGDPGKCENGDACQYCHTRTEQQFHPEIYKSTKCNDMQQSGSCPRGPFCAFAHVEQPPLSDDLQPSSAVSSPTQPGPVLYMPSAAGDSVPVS

B1: ENSG00000136451:be:win_3201|3pUTR|ENSG00000136451|bound_else_gene|NA|bound_elsewhere_windowed (ssRNA)
RNA: GGGAGUUCUACAGUCCGACGAUCAACAGUUCUAGGGGGUUGAACUACAUAGUAAAAAAAUAAAAUAAAUAGUACUUAGUGUAAAAUAAUUUUAUAAAUGAUCUUUUGUACUUUAGGACAUUAAAUUGUACAACUUUUGUAUAUCAACAGAGGAUUGAGCAUCA
B2: chr15:50499333:50499363:+|3pUTR|ENSG00000138592|msi1_unk|total|mutant (ssRNA)
RNA: GGGAGUUCUACAGUCCGACGAUCCAGGUACCAUUUAUUUCAAAACAACUUUUUCCGUCUGCUCCAAAGUUAAAAUAAUUAACCCGCUAAGCAUUAUUAUUCGACUGGUCUAAAAACUAUUGUUAUCUUUUUUUUUUCCUUUUCCAACAGAGGAUUGAGCAUCA
B3: chr19:35623844:35623945:+|3pUTR|ENSG00000249115|unk|total|mutant (ssRNA)
RNA: GGGAGUUCUACAGUCCGACGAUCUGUGUCAAGAGCAGCGGCGGUGACGCAGGUGCCGAGAUUUGUCAGAGCUCAUGCCGUUGCCGUCUUAAGGCCUGUGCAUUUCACUGCGUGGGUUACUCAAUUUAUAAAGCAAAGCCCUUACAACAGAGGAUUGAGCAUCA
B4: chr10:51697484:51697585:-|3pUTR|ENSG00000177613|unk|FALSE|unique (ssRNA)
RNA: GGGAGUUCUACAGUCCGACGAUCAAUGGGUGCAAAAAGCUGACUUCUGUAUCCCCACACUUGGAUUAGGGUUUCCCUCCUCCUAGAACCUAAUCUUAUUUUUUGUUCUUUUUCUUUCUUUCUGUUUUCCUUUUUUUUUUAAUUCAACAGAGGAUUGAGCAUCA
B5: chr11:27368498:27368690:-|CDS|ENSG00000205213|msi1|total|mutant (ssRNA)
RNA: GGGAGUUCUACAGUCCGACGAUCACCCCUUUGUUUGCCAUUUCCUACAGGUGAAACGCCAUCAUCCGGAUUCACUGUAACGUCCGUGCUAUUAAACUCACCCGCAUUUUUAUUAAUGGCCGUUAUCUACACUAAACUAUACUGCAACAGAGGAUUGAGCAUCA
B6: ENSG00000136451:be:win_2401|3pUTR|ENSG00000136451|bound_else_gene|NA|bound_elsewhere_windowed (ssRNA)
RNA: GGGAGUUCUACAGUCCGACGAUCAUUCCUAUUUAGGAGCCAAGGAGUACUUUGGAACAGUACAAAUAUAUUGCUUUAAAUUGGAAGACGCUGGAGGCACUGGGAUGUGAUAUGCCCCUCUCUCUCCCAAUCAGAGCCUGUUGACAACAGAGGAUUGAGCAUCA
B7: ENSG00000198589:be:win_501|CDS|ENSG00000198589|bound_else_gene|NA|bound_elsewhere_windowed (ssRNA)
RNA: GGGAGUUCUACAGUCCGACGAUCCGAGCUAAAGCUUUUCUUCAGUAAACUUCAAGGAGAUAAAGGACGAUGGCCUCCACAUGCUGGGAAGUUGCUGUCUGUGUUAAAGCAUAUGCCUCAGAAGUAUGGUCCUGAUGCCUUUUUCAACAGAGGAUUGAGCAUCA
B8: chr2:73268725:73269630:-|CDS|ENSG00000163013|control|control|control (ssRNA)
RNA: GGGAGUUCUACAGUCCGACGAUCCGAGAAGGAGGAGCUGGAGGAGCGCGCGUCUGAGCUCUCCCGCCAGGUGGACGUGAGCGUAGAGCUGCUGGCCUCACUCAAGCAGGACCUGGUGCACAAGGAACAGGAGCUGAGCCGCAACAACAGAGGAUUGAGCAUCA
B9: chr20:59325757:59325866:+|3pUTR|ENSG00000124205|unk|FALSE|unique (ssRNA)
RNA: GGGAGUUCUACAGUCCGACGAUCUUAUGUGGAUCUGUUCAAAGUAGUCACUGUAUAUACGUAUAGAGAGGUAGAUAGGUAGGUAGAUUUUAAAUUGCAUUCUGAAUACAAACUCAUACUCCUUAGAGCUUGAAUUACAUUUUUCAACAGAGGAUUGAGCAUCA
B10: chr12:123662440:123662541:+|3pUTR|ENSG00000111358|unk|FALSE|unique (ssRNA)
RNA: GGGAGUUCUACAGUCCGACGAUCAAUGGAAAUCACAAUUUUAAGUCUAGGAAAUAAAGUAUUAUAUAUACUUUCAAACAAGCUAGCAAGGCUUUUAUUAUUACUUUUUUAUUUGAAAUAUCUUAUAUAUUUGGUUAGUUCUGUCAACAGAGGAUUGAGCAUCA
B11: chr1:205790044:205790145:-|3pUTR|ENSG00000133065|msi1|total|mutant (ssRNA)
RNA: GGGAGUUCUACAGUCCGACGAUCAGAUUCUUCUGCCUCUUUCUCCUUUCCAGACCCCUACUCUGUGCAGUGCUGACCACAGCCCGAGCCACCGCCCCAUUGCUCAACCAGUAUUUAUUUCCCUAAACGACCCUUCCUCACAUUCAACAGAGGAUUGAGCAUCA
B12: ENSG00000107863:be:win_851|CDS|ENSG00000107863|bound_else_gene|NA|bound_elsewhere_windowed (ssRNA)
RNA: GGGAGUUCUACAGUCCGACGAUCUGUUAUCCAAUAGAAACAACCAUACAGGUCCUUCACAUAGAACUGAAGAAGUGAGGUAUGGCGUGAGUGAGCAGACCUCUUUAAAAACAGUGUCAAGAACCACAUCACCACCAUUAUCAACAACAGAGGAUUGAGCAUCA
B13: chr10:78035461:78035635:+|CDS|ENSG00000138326|unk|total|mutant (ssRNA)
RNA: GGGAGUUCUACAGUCCGACGAUCCAUUGAUGUCCUUCACCCCGGGAAGGCGACAGUGCCUAAGACAGAAAUUCGGGAAAAACCCGCCAAAAUGUACAAGACCACACCGGAUGUCAUCUUUGUAUUUGGAUUCAGAACUCAUUUCAACAGAGGAUUGAGCAUCA
B14: ENSG00000198589:be:win_5201|CDS|ENSG00000198589|bound_else_gene|NA|bound_elsewhere_windowed (ssRNA)
RNA: GGGAGUUCUACAGUCCGACGAUCCAGUCUCACCUUCCACCUUUAAUACAAGCAUACCUACCAAUGCUGUCAGUGUGGUUUCCUCAGUAGAUUCAGCCCAAGCCUCAGAUAUGGGAGGAGAAUCACCAGGCAGUAGAUCAUCUACAACAGAGGAUUGAGCAUCA
B15: chr6:36855602:36855703:-|3pUTR|ENSG00000137168|msi1|FALSE|unique (ssRNA)
RNA: GGGAGUUCUACAGUCCGACGAUCGUCAUGAAGCUUAGGAGGCCUGGCAUCUUGGGUGAGUUAGAGAUGGAAGUACAUUUUAAUAGGAUGCUUCUUUUCUCUUCCCCCAGUGCCUAGGUUGCCAGAGCAUUUGCACAAAUGCCCCAACAGAGGAUUGAGCAUCA
B16: chr1:233671823:233671924:+|3pUTR|ENSG00000135750|msi1|FALSE|unique (ssRNA)
RNA: GGGAGUUCUACAGUCCGACGAUCUGCUGCUGUGGUUAGAAGCAGAUUUUAUACUUUUAACUGGAAACUUUGGGGUUUGCAUUUAGAUCAUUUAGCUGAUGGCUAAAUAGCAAAAUUUAUAUUUAGAAGCAAAAAAAAAAAGCACAACAGAGGAUUGAGCAUCA
B17: chr19:12699786:12699848:-|3pUTR|ENSG00000105576|msi1_unk|total|mutant (ssRNA)
RNA: GGGAGUUCUACAGUCCGACGAUCCCUGCUCCAUCCAUCCCUCCUGGGCGCCAGACCCUCCAUCCAAGCCCUGUGUCUUUCCACCGUCAGGGUCAGGCCCUGCAUCUAUUCCAAGGGGCACUCAGUACACAUUCCAUAAAUCCGCAACAGAGGAUUGAGCAUCA
B18: chr10:62806226:62806343:+|3pUTR|ENSG00000181915|unk|FALSE|unique (ssRNA)
RNA: GGGAGUUCUACAGUCCGACGAUCCUACCCCUUAGUUAAAUAGGGUUUAUUUUCCACUCAUGCCCUUAUGCCUUUUUUUCUUAUAGUUUUUUAACUUAUUGACUGUGCAUGACCCAGUGGUUUGAAUUGUUUUUAGUUCAAGUCCAACAGAGGAUUGAGCAUCA
B19: chr9:115020670:115020933:-|3pUTR|ENSG00000041982|msi1|FALSE|unique (ssRNA)
RNA: GGGAGUUCUACAGUCCGACGAUCCUUCUCUUAGGUGGCUCUGGGAAUGGGAGAGGGGUAGGAUGUACAGGGGUAGUUUGUUUUAGAACCAGCCGUAUUUUACAUGAAGCUGUAUAAUUAAUUGUCAUUAUUUUUGUUAGCAAACAACAGAGGAUUGAGCAUCA
B20: chr3:197282668:197282805:-|CDS|ENSG00000075711|msi1|FALSE|unique (ssRNA)
RNA: GGGAGUUCUACAGUCCGACGAUCUGGGAGAUUUCCAGCCUUCCAAGCUCUACUGUGACUUCAGAGACACUGCCAAGCAGCCUUAGCCCUAGUGUAGAGGUGAGAUAAAAAAUGUGUUCUGAAGCUGUUUUUUGGUGAUCAAUUCAACAGAGGAUUGAGCAUCA
B21: chr5:173956200:173956301:+|3pUTR|ENSG00000113742|unk|FALSE|unique (ssRNA)
RNA: GGGAGUUCUACAGUCCGACGAUCCCCCUUCCUCAACCUCUUCACGCUGGCAUGUCCUUUUGUAGCAGUCUGUAACUUAACUAUAGUAUAAUGAAAAGAAUGACCUAUAAUAUAGGUGUUUUGUAGAUUCUUGUGUCACUGCAACAACAGAGGAUUGAGCAUCA
B22: chr5:150657389:150657496:+|3pUTR|ENSG00000171992|unk|total|mutant (ssRNA)
RNA: GGGAGUUCUACAGUCCGACGAUCCUCUCUCUCUCUCUCACACACACACACACACACACACACACACACACACACACACACACCCGUCCGUGCCUUGGAUGAGGCGGGGCAGUGUGUAUAUGGACCCCUGGACUUGCUACCUUCCAACAGAGGAUUGAGCAUCA

Molecular target: T1, UNK ZnF1-6 (called full-length)
Assay: nsRBNS (natural sequence RNA bind-n-seq); RBNS binding buffer (assumed for nsRBNS): 25 mM Tris pH 7.5, 150 mM KCl, 3 mM MgCl2, 0.01% Triton X-100, 500 ug/ml BSA, 20 U/ml SUPERase-In, 4 C; UNK is unkempt and MSI1 is Musashi-1; names of the RNAs are library labels; protein concentration not given here; high values mean tight binding

Compared with B1, B2 is lower in binding signal: 96.7 enrichment R for the first, 4.54 enrichment R for the second.

First: B3
Second: B4
The binding signal of the first is lower: 0.5 enrichment R for the first, 3.92 enrichment R for the second.

Going from B5 to B6, the binding signal rises from 0.558 enrichment R to 0.588 enrichment R.

Going from B7 to B8, the binding signal rises from 0.487 enrichment R to 0.934 enrichment R.

First: B9
Second: B10
The binding signal of the first is higher: 20.3 enrichment R for the first, 12.5 enrichment R for the second.

First: B11
Second: B12
The binding signal of the first is higher: 1.12 enrichment R for the first, 0.502 enrichment R for the second.

First: B13
Second: B14
The binding signal of the first is lower: 0.43 enrichment R for the first, 0.697 enrichment R for the second.

Compared with B15, B16 is higher in binding signal: 1.03 enrichment R for the first, 5.04 enrichment R for the second.

Compared with B17, B18 is higher in binding signal: 0.878 enrichment R for the first, 15.8 enrichment R for the second.

Compared with B19, B20 is lower in binding signal: 6.74 enrichment R for the first, 0.536 enrichment R for the second.

Compared with B21, B22 is lower in binding signal: 2.33 enrichment R for the first, 1.3 enrichment R for the second.

Source: paper PMC12136788
